The campaign covered roughly 310,000 compounds. About 14,000 (4.5%) showed an effect of 50% or more. The effect is printed as a negative number. The list shows a part of the results.
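Note: peak tail current of the secondary pulse compared with the same well before compound.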

human ether-à-go-go-related gene (hERG) potassium channel, sequence (Q12809 whole entry, looked up): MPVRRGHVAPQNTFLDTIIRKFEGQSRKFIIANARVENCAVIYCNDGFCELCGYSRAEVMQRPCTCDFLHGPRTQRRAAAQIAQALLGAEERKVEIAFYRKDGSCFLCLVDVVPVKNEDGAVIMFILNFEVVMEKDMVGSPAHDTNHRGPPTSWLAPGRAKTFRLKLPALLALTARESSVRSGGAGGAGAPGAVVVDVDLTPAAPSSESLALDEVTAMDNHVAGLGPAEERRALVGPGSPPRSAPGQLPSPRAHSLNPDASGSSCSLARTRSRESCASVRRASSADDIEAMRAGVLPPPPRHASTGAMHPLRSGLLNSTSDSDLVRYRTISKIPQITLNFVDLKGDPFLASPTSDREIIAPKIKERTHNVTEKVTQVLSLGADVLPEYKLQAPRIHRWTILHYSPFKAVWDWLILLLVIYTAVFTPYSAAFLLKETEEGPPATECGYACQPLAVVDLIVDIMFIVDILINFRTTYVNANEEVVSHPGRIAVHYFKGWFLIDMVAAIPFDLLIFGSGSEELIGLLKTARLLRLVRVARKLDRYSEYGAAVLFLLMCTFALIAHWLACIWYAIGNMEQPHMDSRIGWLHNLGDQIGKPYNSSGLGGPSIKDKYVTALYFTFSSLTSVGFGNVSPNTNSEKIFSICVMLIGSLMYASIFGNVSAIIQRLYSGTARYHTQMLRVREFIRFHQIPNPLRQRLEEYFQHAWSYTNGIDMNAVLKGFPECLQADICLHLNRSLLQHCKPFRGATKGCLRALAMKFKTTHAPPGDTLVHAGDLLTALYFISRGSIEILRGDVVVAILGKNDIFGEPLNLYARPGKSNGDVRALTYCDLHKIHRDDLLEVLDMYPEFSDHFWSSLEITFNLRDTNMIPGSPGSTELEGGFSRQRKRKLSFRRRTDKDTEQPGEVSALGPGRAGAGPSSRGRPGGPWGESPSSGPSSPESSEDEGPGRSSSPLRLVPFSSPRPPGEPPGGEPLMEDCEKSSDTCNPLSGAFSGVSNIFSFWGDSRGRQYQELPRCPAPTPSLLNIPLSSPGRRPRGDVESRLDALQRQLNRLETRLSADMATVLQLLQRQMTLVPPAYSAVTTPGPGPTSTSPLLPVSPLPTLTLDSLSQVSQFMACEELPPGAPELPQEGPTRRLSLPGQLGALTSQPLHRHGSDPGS

The assay addresses human ether-à-go-go-related gene (hERG) potassium channel (human, UniProt Q12809). Put plainly: primary screen, population patch clamp on CHO cells stably expressing hERG.
Regarding `CCOC(=O)Cn1nc(C)n(-c2ccc(F)cc2)c1=O`, the “hERG current change (%, negative = inhibition) at 10uM” value was determined as 20.4%.
For `O=c1[nH]c(/C=C/c2ccc3c(c2)OCO3)c([N+](=O)[O-])c(=O)[nH]1`, the “hERG current change (%, negative = inhibition) at 10uM” value stood at 45.8%.
Under `CCCCn1c(N)c(N(CC(C)C)C(=O)c2ccc(C)c(S(=O)(=O)N3CCCCC3)c2)c(=O)[nH]c1=O` stands 0.167%; under `CCP(=O)(c1ccccc1)C(C)(C)O` (stereo not drawn), 9.43%.
In the case of `CCN(CC)CCCN1C(=O)C(O)=C(C(=O)c2cc3ccccc3o2)C1c1ccccn1` (stereo not drawn), the “hERG current change (%, negative = inhibition) at 10uM” value was found to be 10.1%.
In the case of `Cc1ccnc(NC(=O)CC(c2ccccc2)c2ccccc2)n1`, the “hERG current change (%, negative = inhibition) at 10uM” value was found to be 30.5%.
Under `Cc1ccc(NS(=O)(=O)c2ccc(NC(=O)C3CCCO3)cc2)cc1` (stereo not drawn) stands -1.6%; under `Cc1cc(C)cc(CC2CC(=O)N(c3nc(C)cc(C)n3)C2=O)c1` (stereo not drawn), -4.62%; under `O=C(CCNS(=O)(=O)c1ccc(Cl)cc1)N1CCN(Cc2ccccc2)CC1`, -47.6%.
Under `CCn1ncc(Br)c1C(=O)Nc1nccs1` stands -10.8%.
Under `COc1ccc(/C=N/n2c(C3CCCCC3)n[nH]c2=S)c(OC)c1` stands 23.6%; under `FC(F)(F)c1ccc2c(c1)NCC1CCCN21` (stereo not drawn), 16.6%; under `CCCOC(=O)Nc1cc(OC)ccc1[N+](=O)[O-]`, 6.14%.
For `COc1cccc(C(=O)OCC(=O)c2[nH]c(C)c(C(C)=O)c2C)c1`, the “hERG current change (%, negative = inhibition) at 10uM” value is reported as 21.2%.
As for `CCOC(=O)N1CCN(C(=O)CCCN2C(=O)CSc3nc(C)cc(C)c32)CC1`, the “hERG current change (%, negative = inhibition) at 10uM” value was determined as 12.1%.
Under `Cc1csc2ncnc(NCCc3ccccn3)c12` stands -22.4%; under `COc1cccc(CNS(=O)(=O)c2cc3c(cc2Cl)NC(=O)CO3)c1`, -18.8%; under `Clc1ccc(-c2nnc(SCc3nc(-c4ccccc4)no3)o2)cc1`, 13.6%.
Under `O=C(COC(=O)CCCNC(=O)c1ccc(Cl)cc1)Nc1cc(Cl)ccc1Cl` stands 23.5%; under `CCOC(=O)c1sc(NC(=O)CSc2nnc(-c3ccco3)o2)c(C(=O)OCC)c1C`, 7.76%.
Under `CCCCn1c(N)c(N(CCOC)C(=O)c2cccc(S(=O)(=O)N(C)c3ccc(C)cc3)c2)c(=O)[nH]c1=O` stands 9.05%; under `CNC(=O)c1c(NC(=O)c2ccc(S(=O)(=O)N3CCCCC3C)cc2)sc2c1CCN(C)C2` (stereo not drawn), -3.92%; under `COC(=O)c1[nH]c2cccc(OC)c2c1NC(=O)CN1CCOCC1`, 2.83%.
With `CCOc1ccc2ccccc2c1CNCCN1CCOCC1.Cl`, the “hERG current change (%, negative = inhibition) at 10uM” value is given as -27.7%.
Under `CC(OC(=O)c1ccc(Cl)c(S(N)(=O)=O)c1)C(=O)NCC1CCCCC1` (stereo not drawn) stands -3.93%; under `O=C(CN1C(=O)c2cccnc2Oc2ccc(Cl)cc21)NC1CCCC1`, 0.804%.
Under `O=C(CSCc1c(Cl)cccc1Cl)Nc1ccc2c(c1)OCO2` stands 6.72%.
Under `CS(=O)(=O)C1=NSC2=NC(=O)/C(=C\c3ccc(OC(=O)c4ccco4)c(Br)c3)C(=N)N21` stands 7.59%; under `CC(=O)N1CCOc2ccc(S(=O)(=O)N3C(C)CCCC3C)cc21` (stereo not drawn), 6.53%; under `Cc1cc(-c2csc(NC(=O)c3ccc(C#N)cc3)n2)c(C)n1Cc1ccccc1`, 4.16%.
As to `CCOC(=O)C(=O)N(CC)C1CCS(=O)(=O)C1` (stereo not drawn), the “hERG current change (%, negative = inhibition) at 10uM” value was 1.75%.
Under `O=C(COc1ccccc1)Nc1ncc2c(n1)CCCC2=O` stands -7.92%.
Under `Cl.O=C(COc1ccc(Br)cc1CNCCc1ccccc1)NCc1ccccc1` stands -61.1%; under `CCCCN(CC)CCCNC(=O)CC1Oc2ccccc2NC1=O` (stereo not drawn), -22.6%.
For the compound `O=C(CC1C(=O)NCCN1C(=S)Nc1ccccc1)Nc1ccc(F)cc1` (stereo not drawn), the “hERG current change (%, negative = inhibition) at 10uM” value is listed as -3.33%.
Under `CN1CCN(C(=O)NC2CCCN2S(=O)(=O)c2ccc(Cl)cc2)CC1` (stereo not drawn) stands 0.602%.
Under `CCSc1ccc(NC(=O)c2cccnc2)cc1` stands 0.972%; under `CCN(CC(=O)Nc1c(F)cccc1F)C(=O)CNC(=O)c1cccs1`, 10.1%.
In the case of `Cc1c2cnn(-c3ccccc3)c(=O)c2c(C)n1CCCC(=O)NCCN1CCN(C)CC1`, the “hERG current change (%, negative = inhibition) at 10uM” value amounted to 1.27%.
Under `CCCS(=O)(=O)c1csc(C(=O)OC)c1N` stands 10.1%; under `CCCNC(=O)N1c2ccccc2Sc2ccccc21`, 10.5%; under `CN1c2ccc([N+](=O)[O-])cc2CC2(C(=O)NC(=O)N(c3ccccc3)C2=O)C1c1ccccc1` (stereo not drawn), 22.5%.
Under `CN(Cc1cccs1)c1ncnc2sccc12` stands -28.8%.
Under `CC(=O)c1c(O)c(C)c(-c2ccccc2)n(-c2ccccc2)c1=O` stands -3.96%; under `CCOC(=O)C1=C(N)Oc2c(oc(CO)cc2=O)C1c1c(F)cccc1Cl` (stereo not drawn), 0.47%.
